What was measured:
[1] = Dimer stability during protein preparation (electrophoresis); format: physicochemical; settings: electrophoresis after purification (FIG. 5)
[2] = test system: mice splenic lymphocyte proliferation stimulated by ConA; format: cell-based; settings: for inhibition ratio of mice splenic lymphocyte proliferation relative to group ConA: second round (Table 3); for inhibition rate / in vitro efficacy compared with TSL-4 control group: control: TSL-4 (P4 positive control, 12 μmol/L)
Description: Experimental method: mice orbit was by bloodletting to death, and immediately immersed in 75% ethanol for 5-10 min, and then the spleen was removed on a clean bench and placed in PBS. The spleen was placed on a sterile cell strainer (200 mesh) and ground with a syringe nozzle; during grinding process, PBS was added continuously; the slurry was collected and centrifuged (1000 rpm for 5 min), then cells were washed 3 times with Tris-ammonium chloride solution, and washed again with a medium, and then re-suspended in the medium. Finally, trypan blue living cell staining was performed on the cells, and the survival rate was more than 95%. The concentration of viable cells was adjusted to 2×10^6/mL. […] was added to each well of a 96-well plate, meanwhile, ConA (concanavalin to simulate splenocyte proliferation) and drugs were added to each well. Six duplicates were set in each group.
The 96-well plate was incubated for 48 h in a 5% CO2 incubator at 37° C. 5 mg/mL of MTT was added to the 96-well plate, 20 μL for each well, and then it was incubated continuously for 4 h in the incubator. The culture medium in the 96-well plate was discarded and 100 μL DMSO was added to each well and mixed gently. Absorbance was measured by a microplate reader at the wavelength of 570 nm and reference wavelength of 630 nm.
Proliferation inhibition rate (PI) was calculated according to formula:
[formula] wherein, Atest is the absorbance of dosing group, and Acontrol is the absorbance of negative control. Test results were expressed as mean±SD, and statistical T test was performed. *P<0.05 indicates significant difference, **P<0.01 indicates extremely significant difference. Based upon the results, the efficacy of the fusion protein against rheumatoid arthritis was screened.
In the P4 control group, TSL-4 fusion protein served as a control agent.

HM-3-(GGGGS)3-IgG4-Fc (IVRRADRAAVPGGGGRGDGGGGSGGGGSGGGGS[human IgG4 Fc skipped]) [TSL-5]
dimer stability during protein preparation [1]: serious problem of dimer degradation

IgG4-Fc-(GGGGS)3-HM-3 ([human IgG4 Fc skipped]GGGGSGGGGSGGGGSIVRRADRAAVPGGGGRGD) [TSL-6]
dimer stability during protein preparation [1]: serious problem of dimer degradation

B1: mIgG4-Fc-(AP)9-HM-3 (protein)
chain: [human IgG4 Fc with S228P F234A L235A (EU numbers) and a few adjoining residues skipped]APAPAPAPAPAPAPAPAPIVRRADRAAVPGGGGRGD
inhibition ratio of mice splenic lymphocyte proliferation relative to group ConA [2]: improved significantly

B2: HM-3-(GGGGS)3-mIgG4-Fc-(GGGGS)3-HM-3 (protein)
chain: IVRRADRAAVPGGGGRGDGGGGSGGGGSGGGGSA[human IgG4 Fc with S228P F234A L235A (EU numbers) skipped]GGGGSGGGGSGGGGSIVRRADRAAVPGGGGRGD
inhibition rate / in vitro efficacy compared with TSL-4 control group [2]: lower than that of TSL-4 protein

B3: mIgG4-Fc-G5-HM-3-G8-HM-3 (protein)
chain: [human IgG4 Fc with S228P F234A L235A (EU numbers) and a few adjoining residues skipped]GGGGGIVRRADRAAVPGGGGRGDGGGGGGGGIVRRADRAAVPGGGGRGD
inhibition rate / in vitro efficacy compared with TSL-4 control group [2]: lower than that of TSL-4 protein

B4: mIgG4-Fc-A(EAAAK)4A-HM-3 (protein)
chain: [human IgG4 Fc with S228P F234A L235A (EU numbers) and a few adjoining residues skipped]AEAAAKEAAAKEAAAKEAAAKAIVRRADRAAVPGGGGRGD
inhibition ratio of mice splenic lymphocyte proliferation relative to group ConA [2]: improved significantly
